Data reported in publication PMC4336329 (PLoS ONE, 2015).
Among all 310,000 compounds or so, about 14,000 (4.5%) showed an effect of 50% or more. The effect is printed as a negative number. The list shows a part of the results.
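Note: peak tail current of the secondary pulse compared with the same well before compound.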

Each compound was assayed against human ether-à-go-go-related gene (hERG) potassium channel (human, UniProt Q12809) (assay: primary screen, population patch clamp on CHO cells stably expressing hERG).
Sequence of human ether-à-go-go-related gene (hERG) potassium channel (Q12809 whole entry, looked up): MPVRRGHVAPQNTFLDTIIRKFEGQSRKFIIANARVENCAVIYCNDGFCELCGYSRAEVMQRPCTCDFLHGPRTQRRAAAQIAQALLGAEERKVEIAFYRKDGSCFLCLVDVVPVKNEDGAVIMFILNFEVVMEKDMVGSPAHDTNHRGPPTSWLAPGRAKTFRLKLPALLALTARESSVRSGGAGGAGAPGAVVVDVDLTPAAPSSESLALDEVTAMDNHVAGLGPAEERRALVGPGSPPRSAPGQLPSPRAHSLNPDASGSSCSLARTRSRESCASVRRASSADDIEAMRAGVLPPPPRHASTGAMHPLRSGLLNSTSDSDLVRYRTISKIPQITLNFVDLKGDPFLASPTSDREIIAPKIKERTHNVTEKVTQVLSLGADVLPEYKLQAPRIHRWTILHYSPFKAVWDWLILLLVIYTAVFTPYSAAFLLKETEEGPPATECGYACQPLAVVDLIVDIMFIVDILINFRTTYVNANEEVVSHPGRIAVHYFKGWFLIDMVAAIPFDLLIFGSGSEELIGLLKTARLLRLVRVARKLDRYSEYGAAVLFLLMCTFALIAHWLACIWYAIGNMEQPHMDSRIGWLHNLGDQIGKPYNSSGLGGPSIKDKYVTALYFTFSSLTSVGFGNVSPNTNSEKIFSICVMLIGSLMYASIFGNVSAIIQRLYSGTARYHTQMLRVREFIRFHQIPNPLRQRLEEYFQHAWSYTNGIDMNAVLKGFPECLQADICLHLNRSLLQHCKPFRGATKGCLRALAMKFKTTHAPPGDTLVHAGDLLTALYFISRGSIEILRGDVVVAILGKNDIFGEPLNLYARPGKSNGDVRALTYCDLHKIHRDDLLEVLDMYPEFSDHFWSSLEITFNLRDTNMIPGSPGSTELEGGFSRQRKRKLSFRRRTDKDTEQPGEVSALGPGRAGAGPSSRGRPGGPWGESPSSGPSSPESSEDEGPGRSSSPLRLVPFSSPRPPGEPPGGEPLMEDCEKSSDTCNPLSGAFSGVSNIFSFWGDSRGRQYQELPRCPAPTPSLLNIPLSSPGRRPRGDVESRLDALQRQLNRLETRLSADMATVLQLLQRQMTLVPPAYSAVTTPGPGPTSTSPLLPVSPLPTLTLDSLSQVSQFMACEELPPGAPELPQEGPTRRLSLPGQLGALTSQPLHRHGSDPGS
With `CN1CCCN(S(=O)(=O)c2ccc(O)c(C(=O)O)c2)CC1.Cl` the “hERG current change (%, negative = inhibition) at 10uM” value was 15.6%. For `O=C(Nc1ccnn1C1CCN(C2CCC2)CC1)c1cccc(F)c1`, the “hERG current change (%, negative = inhibition) at 10uM” value was -12.5%. In the case of `COc1cc2[nH]c(=O)c(C(=O)NCc3ccccc3Cl)c(O)c2cc1OC`, the “hERG current change (%, negative = inhibition) at 10uM” value is reported as 8.08%. With `CSc1ccc(CN(C)CCc2ccccn2)cc1.O=C(O)C(=O)O` the “hERG current change (%, negative = inhibition) at 10uM” value was -64.4%. With `O=C(Cn1cnc2ccccc21)N1CCN(S(=O)(=O)c2ccccc2)CC1` the “hERG current change (%, negative = inhibition) at 10uM” value was 13.7%. `O=C(c1ccccc1F)N(NC(=O)C(O)(c1ccccc1)c1ccccc1)c1ccccc1` was tested, and the “hERG current change (%, negative = inhibition) at 10uM” value was 5.11%. In the case of `Cc1cc(C)cc(Nc2cc(C)nc3nc(C)nn23)c1`, the “hERG current change (%, negative = inhibition) at 10uM” value is reported as -14.7%. With `CCO[C@@H]1OC(C(=O)O)=C[C@H](c2ccc3c(c2)OCO3)[C@H]1CCCO` the “hERG current change (%, negative = inhibition) at 10uM” value was 15.7%. For `CC(=O)Nc1ccc(S(=O)(=O)NNC(=O)C2CCCCC2)cc1`, the “hERG current change (%, negative = inhibition) at 10uM” value was -0.821%. `CCOCC(=O)Nc1ccc(C(=O)Nc2ccccc2Cl)cc1` was tested, and the “hERG current change (%, negative = inhibition) at 10uM” value was -3.8%. For `CCCC(C)NC(=O)c1ccccc1SC` (centres unmarked), the “hERG current change (%, negative = inhibition) at 10uM” value was -2.04%. With `CCN(CC)Cc1ccc(OC)c(Cl)c1.Cl` the “hERG current change (%, negative = inhibition) at 10uM” value was -32.2%. `CCN(CC)S(=O)(=O)c1ccc(Cl)c(NC(=O)c2ccccc2C)c1` was tested, and the “hERG current change (%, negative = inhibition) at 10uM” value was 10.7%. In the case of `O=C(COC(=O)c1cc2c(s1)CCC2)Nc1ccc(F)cc1`, the “hERG current change (%, negative = inhibition) at 10uM” value is reported as 21%. For `CCN(c1ccc(C)cc1C)S(=O)(=O)c1nnc(NC(=O)C(C)(C)C)s1`, the “hERG current change (%, negative = inhibition) at 10uM” value was 19.3%. `Cn1c(N)c(C(=O)/C=C/c2ccccc2)c(=O)[nH]c1=O` was tested, and the “hERG current change (%, negative = inhibition) at 10uM” value was 8.52%. With `S=C(Nc1ccccc1)N1CCN(Cc2ccccc2)CC1` the “hERG current change (%, negative = inhibition) at 10uM” value was -4.13%. With `Cc1ccc2c(c1)N(C(=O)CCC(=O)NCCCN1CC(C)CC(C)C1)CCO2` (centres unmarked) the “hERG current change (%, negative = inhibition) at 10uM” value was -56.2%. `COc1ccc(CN2CCNCC2)c(OC)c1OC.Cl` was tested, and the “hERG current change (%, negative = inhibition) at 10uM” value was 17.8%. For `Cn1c(CNS(=O)(=O)c2cccc(Cl)c2)cc(=O)n(C)c1=O`, the “hERG current change (%, negative = inhibition) at 10uM” value was 21.2%. In the case of `CC1=CCC(C(=O)O)C(C(=O)Nc2nc3ccc(S(C)(=O)=O)cc3s2)C1` (centres unmarked), the “hERG current change (%, negative = inhibition) at 10uM” value is reported as 11.1%. `OCCCN=C1CCCc2c1[nH]c1ccc(Cl)cc21` was tested, and the “hERG current change (%, negative = inhibition) at 10uM” value was -44.2%. For `CCOc1ccc(NC(=O)Nc2cc(C)ccc2F)cc1`, the “hERG current change (%, negative = inhibition) at 10uM” value was 1.15%. With `Cc1nn(CC(=O)N/N=C/c2ccc3c(c2)OCO3)c(C)c1Br` the “hERG current change (%, negative = inhibition) at 10uM” value was 11%. For `S=C(Nc1ccc(Cl)cc1)N(CCCN1CCOCC1)Cc1cccs1`, the “hERG current change (%, negative = inhibition) at 10uM” value was -32.4%. `CCc1c(C(=O)NNC(=S)NCC(C)C)csc1C` was tested, and the “hERG current change (%, negative = inhibition) at 10uM” value was -2.45%. In the case of `Cc1ccc(C2C(C(=O)c3cc4ccccc4o3)=C(O)C(=O)N2CCN2CCOCC2)cc1` (centres unmarked), the “hERG current change (%, negative = inhibition) at 10uM” value is reported as 20.7%. `O=C(O)c1cc(N/N=C/c2ccc(-c3ccc(F)cc3)o2)ccc1Cl` was tested, and the “hERG current change (%, negative = inhibition) at 10uM” value was 1.06%. For `CC(=O)c1c(C)nc(-c2ccc(OCC(=O)Nc3cccc(C)c3C)cc2)n1O`, the “hERG current change (%, negative = inhibition) at 10uM” value was 8.52%. `CCc1cc(=O)[nH]c(SCCc2ccccc2)n1` was tested, and the “hERG current change (%, negative = inhibition) at 10uM” value was 11.5%. `CSc1cccc(NC(=O)CN(c2cccc(C)c2)S(C)(=O)=O)c1` was tested, and the “hERG current change (%, negative = inhibition) at 10uM” value was -23.5%. With `COc1ccc(OC)c(CN2CCCC(C(=O)N3CCCCC3)C2)c1.O=C(O)C(=O)O` (centres unmarked) the “hERG current change (%, negative = inhibition) at 10uM” value was -32.1%. `O=C(NCCc1csc(-c2cccnc2)n1)c1c(F)cccc1F` was tested, and the “hERG current change (%, negative = inhibition) at 10uM” value was 11.5%. For `Cc1ccc(NS(=O)(=O)c2ccc(NC(=O)CN(c3cc([N+](=O)[O-])ccc3C)S(C)(=O)=O)cc2)c(C)c1`, the “hERG current change (%, negative = inhibition) at 10uM” value was -13.5%. `O=C(CCc1nc(-c2ccccc2F)no1)NCCN1CCN(Cc2ccccc2)CC1` was tested, and the “hERG current change (%, negative = inhibition) at 10uM” value was -43.2%. `O=C(COC(=O)C1CCC1)Nc1ccc(Oc2ccccc2)cc1` was tested, and the “hERG current change (%, negative = inhibition) at 10uM” value was 0.477%. With `Nc1cccc(/C=C/c2ccncc2)c1` the “hERG current change (%, negative = inhibition) at 10uM” value was 2.01%. With `CC(C)OC(=O)/C(C#N)=C/c1c[nH]c2ccccc12` the “hERG current change (%, negative = inhibition) at 10uM” value was 1.55%. `Cc1c(C#N)c(N=CN(C)C)c(C(=O)c2ccccc2)n1-c1ccc(Br)cc1` was tested, and the “hERG current change (%, negative = inhibition) at 10uM” value was -28.3%. For `COc1cc(-c2nc3cc(C)ccn3c2NC2CCCCC2)ccc1-c1ccc(C(C)=O)cc1.O=C(O)C(F)(F)F`, the “hERG current change (%, negative = inhibition) at 10uM” value was 0.767%. For `CN1CCN(c2ccc(C=O)cc2)CC1`, the “hERG current change (%, negative = inhibition) at 10uM” value was -12.9%. For `Cc1cc(/C=N/n2cnnc2)c(O)c([N+](=O)[O-])c1`, the “hERG current change (%, negative = inhibition) at 10uM” value was 8.57%. With `CC(=O)c1c(O)c2ccccc2n(Cc2ccccc2)c1=O` the “hERG current change (%, negative = inhibition) at 10uM” value was -6.56%. `O=C(O)c1cccc([N+](=O)[O-])c1C(=O)Nc1ccc2ccccc2c1` was tested, and the “hERG current change (%, negative = inhibition) at 10uM” value was 0.663%. With `COCCC(=O)N1CCC(Oc2ccc(C(=O)NCCCC3CCCC3)cc2)CC1` the “hERG current change (%, negative = inhibition) at 10uM” value was -37.3%. With `Cn1c(N)c(C(=O)COC(=O)CCCc2c[nH]c3ccccc23)c(=O)n(C)c1=O` the “hERG current change (%, negative = inhibition) at 10uM” value was -2.03%. In the case of `COc1ccc(-c2nn(-c3ccccc3)cc2C(=O)NC(=S)NNC(=O)c2ccncc2)cc1`, the “hERG current change (%, negative = inhibition) at 10uM” value is reported as 8.38%. With `O=C1CCC(=O)N1CNc1ccccn1` the “hERG current change (%, negative = inhibition) at 10uM” value was 9.12%. `CC(C)NC(=O)c1ccccc1NC(=O)Cc1ccc([N+](=O)[O-])cc1` was tested, and the “hERG current change (%, negative = inhibition) at 10uM” value was -33.8%. In the case of `CCOC(=O)c1ccc(-n2c(O)c(/C=N/NC(=O)C3COc4ccccc4O3)c3ccccc3c2=O)cc1` (centres unmarked), the “hERG current change (%, negative = inhibition) at 10uM” value is reported as -7.92%. For `CC1(C)Cc2ccccc2-c2nc(NCCCO)[nH]c(=O)c21`, the “hERG current change (%, negative = inhibition) at 10uM” value was -18.4%. `C=CCn1c(SCC(=O)NCC2CCCO2)nc2scc(-c3ccco3)c2c1=O` (centres unmarked) was tested, and the “hERG current change (%, negative = inhibition) at 10uM” value was -42.4%. With `O=C(/C=C/c1ccc2c(c1)OCO2)N1CCN(c2ccc(Cl)cc2)CC1` the “hERG current change (%, negative = inhibition) at 10uM” value was 13.8%. For `CC(C)c1ccc(C(O)Cc2nc3ccccc3n2C)cc1` (centres unmarked), the “hERG current change (%, negative = inhibition) at 10uM” value was 5.77%. For `O=[N+]([O-])c1ccc(CN2CCN(c3ccc([N+](=O)[O-])cc3)CC2)cc1`, the “hERG current change (%, negative = inhibition) at 10uM” value was -74.1%. In the case of `Cc1ccccc1NC(=O)C(C)Sc1nnc(-c2ccncc2)n1CC1CCCO1` (centres unmarked), the “hERG current change (%, negative = inhibition) at 10uM” value is reported as 3.98%.
